# Measurements as given in PubChem BioAssay (EPA / NIEHS).
# This is a selection; strong and weak results do not stand in their true shares. Records with an inconclusive call do not appear. Where a structure was tested more than once in an assay, its records may differ in their call. Active and inactive are the calls of the source. The calls were made as follows: active = hit-call score of the fitted dose curve at least 0.9, where 1 is the maximum; inconclusive = response in the unintended direction; inactive = score below 0.9.
# Molecular target: Cellular tumor antigen p53 (Homo sapiens) (UniProt P04637)
# Experiment: TOX21_p53_BLA_p2_ratio: Tox21 HCT-116 p53 Agonism Beta-lactamase Assay, Ratio, Phase 2 (AID 2283592)
# From the text: TOX21_p53_BLA_p2 is a cell-based, single-readout assay that uses HCT116, a human intestinal cell line, […] in a 1536-well plate.TOX21_p53_BLA_p2_ratio is an assay readout measuring reporter gene via receptor activity and designed using inducible reporter (beta lactamase induction) detected with GAL4 b-lactamase reporter gene. The signal is derived from the ratio of cleaved (ch2) to uncleaved (ch1) reporter gene substrate used as the measure of target activity.Data from the assay component TOX21_p53_BLA_p2_ratio was analyzed into 1 assay endpoint. This assay endpoint, TOX21_p53_BLA_p2_ratio, was analyzed in the positive analysis fitting direction relative to DMSO as the negative control and baseline of activity. Using a type of inducible reporter, gain-of-signal activity can be used to understand changes in the reporter gene as they relate to the gene TP53. Furthermore, this assay endpoint can be referred to as a primary readout, because this assay has produced multiple assay endpoints and this ratio serves a reporter gene function to understand target activity. To generalize the intended target to other relatable targets, this assay endpoint is annotated to the DNA binding intended target family, where the subfamily is tumor suppressor.
# Thawing Method: Place 14 mL of pre-warmed thaw medium into a 15 mL of conical tub. Remove the vial of cells to be thawed from liquid nitrogen and thaw rapidly by placing at 37C in a water bath with gentle agitation for 1-2 minutes. Decontaminate the vial by wiping with 70% ethanol before opening in a biological safety cabinet. Transfer the vial contents drop-wise into 14 mL of thaw medium in a sterile 15-mL conical tub. Centrifuge cells at 900 rpm for 4 minutes and resuspend in thaw medium. Transfer contents to the T75 tissue culture flask containing Thaw Medium and place flask in a humidified 37C/5% CO2 incubator. Switch to growth medium at first passage.Propagation Method: Aspirate medium, rinse once in DPBS, add 0.25% Trypsin/EDTA and swirl to coat the cell evenly. Add an equal volume of Growth Medium to inactivate Trypsin after 2-3 minutes incubation at 37C. Centrifuge cells at 900 rpm for 4 minutes and resuspend in growth medium. Cell should be passage or fed at least twice a week.Assay Protocol: Harvest cells from culture in growth medium and resuspend in assay medium. 2.2 Dispense 4000 cells/5 uL/well into 1536-well black/clear bottom plates using a Multidrop dispenser. After the cells were incubated at 37C for 5 hours, 23 nL of compounds dissolved in DMSO were transferred to the assay plate by a PinTool resulting in a 217-fold dilution. Incubate the plates for 16 hours at 37C, 5% CO2. Add 1 uL of 6X LiveBLAzer FRET B/G (CCF4-AM) Substrate Mixture to each well using a BioRAPTR dispenser and incubate the plates at room temperature for 2 hours. Measure fluorescence intensity at 460 and 530 nm emission and 405 nm excitation by an Envision detector. Data is expressed as the ratio of 460nm/530nm emissions. Add 4 uL of Cell-titer Glo to each well using BioRAPTR and incubate the plates at room temperature for 2 hours. Measure fluorescence intensity by a VewLux plate reader.
# Sequence of UniProt P04637 (P04637 whole entry, looked up): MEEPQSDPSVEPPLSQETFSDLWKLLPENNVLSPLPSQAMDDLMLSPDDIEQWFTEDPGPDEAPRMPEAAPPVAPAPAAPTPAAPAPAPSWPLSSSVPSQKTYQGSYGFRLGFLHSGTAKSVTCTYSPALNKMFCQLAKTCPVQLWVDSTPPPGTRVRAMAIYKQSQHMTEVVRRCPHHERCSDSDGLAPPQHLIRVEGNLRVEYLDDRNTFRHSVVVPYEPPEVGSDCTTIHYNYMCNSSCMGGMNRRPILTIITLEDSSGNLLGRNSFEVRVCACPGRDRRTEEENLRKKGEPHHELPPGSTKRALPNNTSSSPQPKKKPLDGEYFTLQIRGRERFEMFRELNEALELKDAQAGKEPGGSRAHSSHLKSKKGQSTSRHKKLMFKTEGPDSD
SMILES,outcome,AC50
CN(C)C(=O)C(c1ccccc1)c1ccccc1,inactive,–
CCCN(CCOc1c(Cl)cc(Cl)cc1Cl)C(=O)n1ccnc1,–,active: 76.8 µM
CCC(C)c1cc([N+](=O)[O-])cc([N+](=O)[O-])c1O (stereo not drawn),inactive,–
C=CC(=O)NCNC(=O)C=C,inactive,–
CC(=O)Oc1ccc2c3c1O[C@H]1[C@@H](OC(C)=O)C=C[C@H]4[C@@H](C2)N(C)CC[C@@]341,inactive,–
C[C@]12N[C@H](Cc3ccccc31)c1ccccc12,inactive,–
C[C@]12CC[C@H]3[C@@H](CCC4=CC(=O)CC[C@@H]43)[C@@H]1CC[C@@H]2O,inactive,–
c1ccc(C2(N3CCCC3)CCCCC2)cc1,inactive,–
CC(O)CCO (stereo not drawn),inactive,–
COC(=O)c1ccccc1S(=O)(=O)NC(=O)N(C)c1nc(C)nc(OC)n1,inactive,–
C=C1CC[C@@]2(O)[C@H]3Cc4ccc(O)c5c4[C@@]2(CCN3CC2CC2)[C@H]1O5,inactive,–
CNC(=O)Oc1cccc(N=CN(C)C)c1,inactive,–
Clc1ccc(Cl)cc1,inactive,–
